# Hit rate of the full screen: of about 330,000 compounds, about 4,200 (1.3%) were called active. Inconclusive means that the source gave no clear call. Such entries were picked first, then a sample of the others. Calls come from the whole dose curve; as a rule, active = well fitted activation curve with a large enough effect; inconclusive = small, poorly fitted or top-dose-only effect; inactive = no such curve, though single readings can be large or run the other way. Potencies beside an inconclusive call are fits to weak or partial responses and may not hold up.
# Test: qHTS screen for small molecules that induce genotoxicity in human embryonic kidney (HEK293T) cells expressing luciferase-tagged ELG1; note: nearly all actives have a fitted effect of over 60% in size
# Settings: HEK293T ELG1-luciferase reporter, luminescence, 16 h; series mostly up to 46 µM
# Method in brief: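 HEK293T cells expressing luciferase-tagged ELG1 were treated with compound or DMSO for 16 hr at 37°C. Luciferase activity was then read after 30 min with ONE-Glo at room temperature; rising signal flags genetic stress.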
# Potency is the fitted concentration of half-maximal effect; tags give direction and shape of the fitted curve.
row,SMILES,Potency
1,Cc1cc(C)n2c(Br)c(CSc3nc4ccccc4s3)nc2n1,"inconclusive: 20.6 µM [activator, partial curve, poor fit]"
2,Cc1cccc(C(=O)NCCC(=O)Nc2ccc(C#N)cc2)c1,inactive
3,Cc1ccc(N2C(=O)c3ccccc3C2Nc2ccccc2F)nc1 (configuration not stated),inactive
4,O=C(COC(=O)C1CCC(=O)N1)Nc1ccccc1OC(F)F (configuration not stated),inactive
5,O=C(NCCc1ccccc1)c1ccc(NC(=O)c2cccnc2)cc1,"inconclusive: 20.6 µM [activator, single point]"
6,CC(C)c1ccc(NC(=O)c2ccc(Br)o2)cc1,"inconclusive: 1.84 µM [activator, full curve]"
7,O=C(Nc1ccon1)c1cc2c(s1)CCCCCC2,active: 4.47 µM
8,O=C(Nc1nnc(C2CC2)s1)c1cc(Cl)sc1Cl,"inconclusive: 18.3 µM [activator, partial curve]"
9,COc1cc(CN2CCN(C(=O)c3ccc(-c4ccccc4)cc3)CC2)cc(OC)c1OC,"inconclusive: 29.1 µM [activator, partial curve, poor fit]"
10,CCOC(=O)COn1c(=O)c(-c2ccc(C)cc2)[n+]([O-])c2ccccc21,"inconclusive: 23.1 µM [activator, partial curve, poor fit]"
11,CCOc1nc(NC(=O)NS(=O)(=O)Oc2ccccc2Cl)nc(-c2ccccc2)n1,"inconclusive: 23.1 µM [activator, partial curve, poor fit]"
12,Cc1ccc(C)c(NC(=S)c2ccc3ccccc3n2)c1,"inconclusive: 9.2 µM [activator, partial curve]"
13,COc1ccc(/C=N\NC(=O)c2sccc2C)cc1Cn1nc(C)cc1C,active: 9.2 µM
14,O=c1[nH]cnc2nn(-c3ccccc3)nc12,"inconclusive: 14.6 µM [activator, partial curve]"
15,CCCOc1ccccc1/C=C1/C(=O)ON=C1C,"inconclusive: 23.1 µM [activator, partial curve, poor fit]"
16,CCOc1ccc(-c2nc(CCl)cs2)cc1,"inconclusive: 16.4 µM [activator, partial curve]"
17,O=C(Nc1cc2c3c(c1)CC(=O)N3CCC2)c1c(F)cccc1F,"inconclusive: 25.9 µM [activator, partial curve, poor fit]"
18,COc1ccc(C(=O)NCCS(=O)(=O)N2CCCC2)cc1,"inconclusive: 18.3 µM [activator, partial curve, poor fit]"
19,O=C(Nc1cccc(Cl)c1)c1ccc(Cn2cc(Cl)cn2)cc1,"inconclusive: 20.6 µM [activator, partial curve, poor fit]"
20,Cc1nc2sc(C(=O)Nc3ccccc3)c(N)c2c(C)c1[N+](=O)[O-],active: 7.3 µM
21,O=C(NCC1CCCO1)c1csc(Nc2cccc3ccccc23)n1 (configuration not stated),"inconclusive: 18.3 µM [activator, single point]"
22,O=C(CSc1n[nH]c(-c2ccccn2)n1)Nc1cccc(Cl)c1,inactive
23,Cc1ccc(N(C(=O)Cn2nnc3ccccc32)C(C(=O)NCc2ccco2)c2ccc(C)o2)cc1 (configuration not stated),inactive
24,c1ccc2nc(-c3ccc(N4CCOCC4)cc3)ccc2c1,"inconclusive: 0.146 µM [activator, partial curve]"

row,SMILES,Potency
1,Cn1nc(CC(=O)Nc2ccc3c(c2)CCC3)c2ccccc2c1=O,inactive
2,Cc1cccc2nc(C(F)(F)F)nc(=O)n12,inactive
3,CCC(C)NC(=O)COC(=O)c1ccccc1OCC(=O)Nc1ccc(Br)cc1 (configuration not stated),"inconclusive: 23.1 µM [activator, single point]"
4,CN(C)CCN(C(=O)c1ccc2c(c1)CCCC2)c1nc2c(F)cccc2s1,"inconclusive: 18.3 µM [activator, partial curve, poor fit]"
5,Cc1cccc(-c2nc(C#N)c(NCC3CCCO3)o2)c1 (configuration not stated),"inconclusive: 10.3 µM [activator, partial curve, poor fit]"
6,Cn1cnnc1SCC(=O)Nc1ccc2nc(SCc3ccccc3F)sc2c1,"inconclusive: 2.31 µM [activator, full curve]"
7,CCOC(=O)c1nn(-c2ccc(F)cc2)cc1O,"inconclusive: 18.3 µM [activator, partial curve]"
8,Cc1c(C(=O)Nc2ccccc2)csc1-c1ccccc1,active: 3.66 µM
9,O=C(Nc1ccc(NC(=O)c2cccs2)cc1)c1ccc2c(c1)OCCO2,"inconclusive: 29.1 µM [activator, partial curve, poor fit]"
10,CCOC(=O)N1CCC(=NNc2nc3ccccc3s2)CC1,"inconclusive: 5.17 µM [activator, partial curve]"
11,CC(=O)c1cccc(NC(=O)CC2Oc3ccc(C)cc3NC2=O)c1 (configuration not stated),inactive
12,CCOC(=O)c1nn(-c2ccc3c(c2)CCN3C(C)=O)cc1O,active: 1.64 µM
13,O=C(O)c1ccccc1NC(=O)c1ccccc1Nc1ccccc1,inactive
14,CCCCOC(=O)c1ccc(NC(=O)COC(=O)C2CSC3(C)CCC(=O)N23)cc1 (configuration not stated),"inconclusive: 25.9 µM [activator, single point]"
15,CC1(C)C2CCC1(C)C(NC(=O)/C=C/c1ccccc1)C2 (configuration not stated),inactive
16,Cc1ccccc1N=C1NC(=O)/C(=C/c2cccnc2)S1,inactive
17,Cc1c(C(=O)Nc2ccncc2)oc2ccccc12,"inconclusive: 16.4 µM [activator, partial curve, poor fit]"
18,O=C(CCc1ccccc1)Nc1ccc2c(c1)OCO2,"inconclusive: 20.6 µM [activator, partial curve]"
19,Cc1nnc2c3ccccc3c(Cl)nn12,"inconclusive: 23.1 µM [activator, partial curve, poor fit]"
20,COc1ccc2oc(C(=O)OCC(=O)N3CCCC(C)C3)c(C)c2c1 (configuration not stated),"inconclusive: 4.11 µM [activator, partial curve, poor fit]"
21,Cc1cc(C)c2nc(/N=C(\N)NC(=O)Nc3ccccc3)nc(C)c2c1,inactive
22,COc1cc(C(=O)OCC(=O)N2CCC(C)CC2)cc2c1OCCO2,inactive
23,Cc1ccsc1/C=N/Nc1nc2ccccc2[nH]1,"inconclusive: 6.51 µM [activator, partial curve]"

# Reference: PubChem BioAssay AID504466 (National Center for Advancing Translational Sciences (NCATS), 2011)
